Laboratory results as given in the supplement of paper PMC3334620.
Over roughly 33,000 sequences, “E-score (-0.5 to 0.5)” has its median near -0.016; the highest 2% begin near 0.31. The list shows a part of the results.

Target: Cst6 (UniProt P40535)
Assay: PBM E-score (8-mer binding enrichment) (E-score (-0.5 to 0.5)); higher = stronger / more preferred TF binding; most listed sequences are background and not binding sites
Details: protein concentration: 200 nM; construct: GST-DNA-binding domain
How it was run: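 Using PURExpress in vitro transcription/translation, GST-tagged yeast transcription factors were made in full-length or DNA-binding-domain form. These were applied at about 100-200 nM to double-stranded universal all-10-mer Agilent arrays, and bound protein was detected with fluorescent anti-GST. Scans were normalised with masliner before the Universal PBM Analysis Suite assigned E-scores to ungapped eight-base words pooled with their reverse complements.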

Sequence | PBM E-score
GGTACGAA | 0.0828
AGGCGAAT | 0.0491
GCTCACAC | -0.0478
GAGATGCA | -0.071
ATGCTGGG | -0.131
AATTTACG | 0.296
ACCAGTCG | -0.0984
AAGTCGGC | -0.239
CAGAGAAA | 0.252
ATCGTGTC | 0.0646
CCATGCTC | -0.244
CTCTGTGC | -0.134
CAAAAGAA | 0.239
CAAGATTA | 0.143
CTTGTCTC | -0.0854
AAAGCCCC | -0.286
CAAAGCAG | -0.00273
AGGAGGAG | -0.204
CTTTGATA | 0.126
CGGTGTTC | -0.0808
ACAGGCGT | -0.233
ATCTTTAA | 0.223

Sequence | PBM E-score
ACTTATAT | 0.257
AGGGGCGC | -0.00801
AAGGAGCC | -0.121
AAACTTTC | 0.00588
CAGCTACC | -0.211
ATTGCTCA | 0.192
CAATCCGG | -0.155
ATTTGCTC | -0.00905
AGATTGTG | 0.063
CGACGCAG | -0.242
TCCCGTAA | -0.0225
AGAGAAAG | -0.0221
AACAGCTG | 0.144
AACTGCAC | 0.0183
GCTGAAGA | -0.228
CAACTGTA | -0.00136
CCACTTCG | 0.0107
ATTGTTTC | 0.24
ATGTCAGG | 0.176
CCCGAGGA | -0.168
CACCTAAC | -0.0134
CTGGTTTA | -0.0136

Sequence | PBM E-score
TCTCGACA | 0.135
AGTACACA | 0.0774
GCTTTCGA | -0.155
CGCAACAG | 0.174
CCCACTTA | 0.0624
CCAGATCG | -0.0783
ATTTTCAA | 0.206
ACATAGAA | 0.126
AGCTGCCA | -0.0672
CAAACTAC | -0.015
GCTCCCAC | -0.251
CGTTCCGC | 0.0692
CTGGATTC | -0.217
ACTTCCTC | -0.198
CAGCCCTG | -0.285
AAGACAAA | 0.175
CAGCGGAC | -0.196
TAAAGGTA | -0.0195
CTTTGATC | -0.0386
CACTAAAG | -0.0911
ATACCTCA | 0.0795
ATTACAAC | 0.226

Sequence | PBM E-score
CACACCAA | 0.186
GCCACCAA | -0.0617
ATGTCATA | 0.442
GTTCTAGA | -0.0522
CTGCTCCA | -0.111
AGCTTTTG | 0.0485
TCGTCGAA | 0.116
ACTCGTCG | -0.0287
TATTTTCA | 0.227
AGCTACCT | -0.0864
TCTGGGAA | 0.00723
ATTGCGAG | 0.0899
AATCGACA | 0.148
CCTAGTTC | -0.0909
CAATGCGG | 0.0695
AAGTATAG | -0.22
CACTAGGG | -0.241
GGACACAC | -0.164
AGTACAAC | -0.143
ACTCAGGG | -0.233
